From PubChem BioAssay AID463173 (ICCB-Longwood Screening Facility, Harvard Medical School, 2010)
Screen size: about 52,000 compounds; about 1,700 (3.3%) were called active. No stated cut-off is given here; in the data, active means survival mostly below about 52% (no sharp cut-off); inactive means mostly above about 56%. Some of the results follow.

Tested on: Wild type
Assay: growth inhibition of S. aureus wild type versus tarO mutant, primary screen, teichoic acid synthesis inhibitors, RN4220, OD600 (AID 463173)
Conditions: S. aureus RN4220 wild type/DeltatarO growth, OD600, 18 h, stronger effect = lower value, screened at 18.75 µg/mL (by protocol)

SMILES	survival
Cc1ccc(NC(=O)c2cc(C)nn2-c2ccccc2)cc1	inactive: 118%
CC1(C)CC(=O)C2=C(C1)OC(N)=C(C#N)C2c1ccc2c(c1Cl)OCO2 (stereo not given)	inactive: 96%
CCOc1cc(C(=O)Nc2ccc3oc(-c4ccc(F)cc4Cl)nc3c2)cc(OCC)c1OCC	inactive: 70%
CCCCNC(=O)CCC(=O)NNc1nc2ccccc2c2nc(-c3ccccc3)nn12	inactive: 92%
COC(=O)CN1C(=O)C(C)(C)Oc2ccc(C(=O)Nc3cccc(OC)c3)cc21	inactive: 108%
COc1cc(C2C(=O)N(C3CCCCC3)CC(=O)N2C2CCCC2)ccc1OC(C)C (stereo not given)	inactive: 85%
O=C(CSc1nc(-c2ccc(F)cc2)cc(C(F)(F)F)n1)NCc1ccccc1	inactive: 84%
COc1ccc(OCC(=O)NCC2(N3CCN(C)CC3)CCCCC2)cc1	inactive: 84%
Cc1cc(C)c2[nH]c(=O)c(C(c3nnnn3C(C)(C)C)N(CCc3ccc(F)cc3)Cc3ccco3)cc2c1 (stereo not given)	inactive: 117%
O=C(NC1CCCCC1)c1ccc(S(=O)(=O)N2CCCC2)cc1	inactive: 104%
CCOC(=O)c1ccc2c(c1)N(Cc1cccc(OC)c1)C(=O)c1ccccc1S2(=O)=O	inactive: 99%
Cc1cccc(C(=O)Nc2c3c(nn2-c2ccc(Cl)cc2)CS(=O)(=O)C3)c1	inactive: 91%
O=[N+]([O-])c1cc(-c2nc(-c3ccccc3)no2)ccc1NCC1CCCO1 (stereo not given)	inactive: 86%
CCOC(=O)c1c(-c2ccccc2)oc2ccc(NS(=O)(=O)c3ccc(OC)cc3)cc12	inactive: 66%
CC(C)(C)OC(=O)N1CCC(c2c(C(=O)NC3CCN(Cc4ccccc4)CC3)cnn2-c2cccc(F)c2)CC1	inactive: 76%
CC1CCN(S(=O)(=O)c2ccc(NC(=O)Nc3ccccc3)cc2)CC1	inactive: 59%
Cc1ccc(-c2cc(C(=O)NC(C)c3ccccc3)c3ccccc3n2)cc1C (stereo not given)	inactive: 60%
CC1CCN(c2ccc(NC(=O)c3cccc(Cl)c3)cc2C(=O)O)CC1	inactive: 76%
Cc1ccc2ncc(C(=O)NCc3ccccc3Cl)c(=O)n2c1	inactive: 93%
CC(=O)Nc1ccccc1-c1nc2ccccc2n(CC(=O)c2ccc(C)c(C)c2)c1=O	inactive: 103%
CCC(CC)C(=O)Nc1ccc(OCc2cc(=O)n3ccsc3n2)cc1	inactive: 87%
COc1ccc(NC(=O)C2CCCN(C(=O)c3cnn(-c4ccc(F)cc4)c3-n3cccc3)C2)cc1 (stereo not given)	inactive: 60%
COc1ccc(NC(=O)CSc2nc3ncccc3[nH]2)c(OC)c1	inactive: 119%

SMILES	survival
Cn1c(=O)cc(OCC(=O)N2CCN(c3ccccc3)CC2)c2ccccc21	inactive: 85%
CN(C)C(=O)CN1CCN(c2ccc(F)cc2)CC1	inactive: 100%
COc1ccc(C)cc1NCc1nnc2n1CCCCC2	active: -3%
O=C(CCCCn1c(=O)c2ccccc2n(Cc2ccc(Cl)cc2)c1=O)NCc1ccccc1Cl	inactive: 103%
Cc1cc(OC(C)C(=O)N(Cc2ccco2)Cc2ccccc2F)cc(C)c1Cl (stereo not given)	inactive: 84%
COc1ccc(-c2cc(C(=O)Oc3cccc(C)c3)c3ccccc3n2)cc1	active: 3%
Cc1ccc(CCNC(=O)C2CCN(c3nnc(C)c4c(C)n(-c5ccccc5)nc34)CC2)cc1	inactive: 70%
Cc1ccc(NC(=O)CSCc2cnn(-c3ccccc3)c2-n2cccc2)c(C)c1	inactive: 106%
CCOc1cccc2sc(N(Cc3cccnc3)C(=O)C3CCCCC3)nc12	inactive: 81%
CCc1ccccc1NC(=O)c1ccc(F)c(S(=O)(=O)NC2CCCCCC2)c1	inactive: 51%
Cc1ccc(NC(=O)CSc2nc3ccccc3c3nc(CCn4cncc4C)nn23)cc1F	inactive: 69%
Cc1ccc(C)c(N2CCN(CCCNC(=O)C3COc4ccccc4C3)CC2)c1 (stereo not given)	inactive: 82%
O=C(Nc1ccccc1)Nc1ccc2c(c1)C(=O)OC2	inactive: 112%
CN1CCN(C(c2ccccc2Cl)c2sc3nc(-c4ccco4)nn3c2O)CC1 (stereo not given)	inactive: 129%
CCC(=O)N1CCc2cc(Br)cc(S(=O)(=O)N3CCN(c4ccc(C(C)=O)cc4)CC3)c21	inactive: 63%
Cc1nc(N)sc1C(C)(C)C	inactive: 105%
Cc1cccc(NC(=O)c2ccc(C(=O)Nc3cccc(C)c3C)cc2)c1C	inactive: 67%
Cc1nnc(NC(=O)CSc2ncccn2)s1	inactive: 102%
COc1ccc(C(=O)Nc2ccc3c(c2)N(C)C(=O)c2ccccc2S3)cc1OC	inactive: 75%
CCOC(=O)c1cnc2c(C)cc(C)cc2c1Nc1ccc(N2CCOCC2)cc1	inactive: 15%
Cc1ccc(-n2nc(C)c(C(=O)NCCCN3CCN(c4ccccc4F)CC3)c2-n2cccc2)cc1	inactive: 129%
CCCOc1ccccc1C(=O)Nc1nc2c(s1)CCCC2	inactive: 120%
